Measured values reported in article PMC4336329 (PLoS ONE, 2015).
Screen size: about 310,000 compounds; about 2,200 (0.71%) showed an effect of 50% or more. The effect is printed as a negative number. The list shows a part of the results.

Molecular target: human ether-à-go-go-related gene (hERG) potassium channel (human, UniProt Q12809)
Assay: primary screen, population patch clamp on CHO cells stably expressing hERG

human ether-à-go-go-related gene (hERG) potassium channel, sequence (Q12809 whole entry, looked up): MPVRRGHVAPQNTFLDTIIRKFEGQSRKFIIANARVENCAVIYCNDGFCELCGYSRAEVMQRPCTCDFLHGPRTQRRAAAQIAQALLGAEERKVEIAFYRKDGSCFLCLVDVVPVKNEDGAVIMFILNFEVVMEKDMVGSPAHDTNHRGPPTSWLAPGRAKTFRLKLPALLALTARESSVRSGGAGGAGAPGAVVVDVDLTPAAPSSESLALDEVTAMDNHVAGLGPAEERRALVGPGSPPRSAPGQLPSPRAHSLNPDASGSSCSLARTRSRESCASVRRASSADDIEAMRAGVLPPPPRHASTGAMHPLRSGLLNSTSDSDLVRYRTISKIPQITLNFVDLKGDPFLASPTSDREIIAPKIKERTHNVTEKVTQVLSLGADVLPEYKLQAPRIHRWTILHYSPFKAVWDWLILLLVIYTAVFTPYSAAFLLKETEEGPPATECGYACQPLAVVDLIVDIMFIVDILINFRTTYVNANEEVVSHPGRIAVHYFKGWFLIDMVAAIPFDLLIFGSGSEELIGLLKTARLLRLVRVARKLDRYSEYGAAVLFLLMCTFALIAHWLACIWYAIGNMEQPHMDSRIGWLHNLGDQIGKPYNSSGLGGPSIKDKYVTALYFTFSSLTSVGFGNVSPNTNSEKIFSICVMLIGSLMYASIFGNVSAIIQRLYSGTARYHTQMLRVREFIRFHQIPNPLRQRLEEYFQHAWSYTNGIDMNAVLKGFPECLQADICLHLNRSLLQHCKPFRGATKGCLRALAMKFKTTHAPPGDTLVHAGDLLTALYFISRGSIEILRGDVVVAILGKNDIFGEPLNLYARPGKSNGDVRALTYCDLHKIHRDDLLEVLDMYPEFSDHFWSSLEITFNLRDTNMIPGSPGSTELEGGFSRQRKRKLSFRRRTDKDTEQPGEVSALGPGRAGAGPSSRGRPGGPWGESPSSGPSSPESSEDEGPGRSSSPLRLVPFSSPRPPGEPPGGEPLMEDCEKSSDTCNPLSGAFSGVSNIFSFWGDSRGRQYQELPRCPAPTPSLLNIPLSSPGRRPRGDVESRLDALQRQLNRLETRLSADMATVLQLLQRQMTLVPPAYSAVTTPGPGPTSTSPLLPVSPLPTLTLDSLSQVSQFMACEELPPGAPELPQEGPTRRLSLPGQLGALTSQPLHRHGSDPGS

| SMILES | hERG current change (%, negative = inhibition) at 1uM |
| --- | --- |
| Cc1ccc(C2C(/C=C3/SC(=S)NC3=O)=C(c3cccs3)Oc3ccccc32)cc1 (stereo not drawn) | 2.1% |
| CSc1ccc(/C=C/c2cc(=O)c3ccccc3[nH]2)cc1 | 4.99% |
| CSc1nsc(SCC(=O)Nc2ccc(C(C)=O)cc2)n1 | 13% |
| O=Cc1cn(Cc2ccc(Br)cc2)c2ccccc12 | 13.6% |
| CCC(C)[C@H](NC(=O)Nc1ccc(Oc2ccccc2)cc1)C(=O)O (stereo partly drawn) | 15.6% |
| S=c1[nH]nc(Cc2ccc(Cl)cc2)n1-c1ccc2c(c1)OCCO2 | 0.474% |
| Cc1occc1C(=O)Nc1ccc(OCc2ccccc2)cc1 | 7.35% |
| COc1ccc(F)c(-c2nc(CN3CCN(C(=O)c4ccco4)CC3)c(C)o2)c1 | 1.85% |
| COc1ccc(S(=O)(=O)n2[nH]c(=O)c(CCO)c2C)c([N+](=O)[O-])c1 | 16.2% |
| Cn1c(SCC(=O)NC(C)(C)C)nnc1-c1cnccn1 | 15.2% |
| COc1cccc(NC(=O)C2CCN(S(=O)(=O)c3ccc4c(c3)C(C)(C)C(=O)N4C)CC2)c1 | 14.3% |
| CC(=O)c1cccc(NC(=O)NN2CCN(C)CC2)c1 | 18.3% |
| COc1ccc(CNC(=O)C2CCN(C(=O)c3sccc3-n3cccc3)CC2)cc1 | 18.9% |
| CCOc1ccc(-c2nc(CCl)cs2)cc1OC.Cl | 8.03% |
| O=C(COc1ccccc1F)NNC(=O)Cc1ccc(S(=O)(=O)N2CCOCC2)s1 | 13% |
| O=C1CN(CC(=O)NC(=O)NCc2ccccc2)CCN1 | 9.77% |
| COc1ccccc1NC(=O)CCc1c(C)nc2c(-c3ccc(F)cc3)c(C)nn2c1C | -0.619% |
| O=S(=O)(c1ccc(SCCOc2ccc(F)cc2)nc1)N1CCCC1 | 7.32% |
| O=C(CCN1C(=O)c2ccccc2S1(=O)=O)Nc1cc(Cl)ccc1Cl | -1.7% |
| O=C(CSc1nnc(CNC(=O)c2ccccc2F)o1)Nc1ccc2c(c1)OCO2 | 0.474% |
| COC(=O)c1ccc(OC)cc1OCC(=O)N1CCN(c2ccc(F)cc2)CC1 | -2.05% |
| Cc1cccc(-n2c(O)c(/C=C/C=Nc3ccccc3)c(=O)[nH]c2=O)c1 | 3.36% |
| CC(CCC(C)OC(=O)c1ccccc1C(=O)O)OC(=O)c1ccccc1C(=O)O (stereo not drawn) | 10.6% |
| COc1ccc(NS(=O)(=O)c2ccc(-n3cnnn3)cc2)cc1OC | 14.3% |
